From PubChem BioAssay AID445 (National Center for Advancing Translational Sciences (NCATS), 2006)
In all, about 110,000 compounds went through this assay and about 40 (0.04%) were called active. Inconclusive results, whose numbers are uncertain, are shown with a selection of clear calls. The call rests on the fitted dose curve; in most records, active means well fitted curve in the direction sought with a large enough effect in the signal ratio (not every such curve was filed as active); inconclusive means small, poorly fitted or top-dose-only effect, or a change in a side signal; inactive means flat fitted curve, though single readings scatter; the % refers to the signal ratio.

Test: IkB Signaling;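 further: 0% = basal untreated cells and 100% = reference inhibitor full response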
Details: ABC-DLBCL IkBa-CBG/CBR dual luciferase ratio (green luciferase fused to IkBa over red control in OCI-Ly3 lymphoma cells), 4 h; IkBa stabilization activation: at 57.1 µM (top of the series), scaled: untreated 0%, proteasome inhibitor 100% unless noted
How it was run: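 Luminescence ratio of IκBα-fused green versus native red beetle luciferase in OCI-Ly3 cells, 4 h post-doxycycline with compound; red signal alone, scaled from basal (0%) to zero light (-100%), flagged nonspecific or cytotoxic effects.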
In the case of c1ccc2c(c1)-c1cccc3c1c-2cc1ccccc13, the IkBa stabilization activation is reported as “inactive”. In the case of COc1ccc(-c2[nH]nc3c2C(c2ccncc2)C(C#N)=C(N)O3)cc1 (stereo not drawn), the IkBa stabilization activation is reported as inconclusive: 11.7% [signal inhibitor]. With CCc1ccccc1NC(=O)CSc1nnc2ccc3ccccc3n12 the IkBa stabilization activation was inconclusive: 0.671% [signal inhibitor]. In the case of Cc1cccc(N2CCN(S(=O)(=O)c3cc(C(=O)Nc4ccccc4Cl)ccc3F)CC2)c1C, the IkBa stabilization activation is reported as inconclusive: -0.0437% [signal inhibitor]. For Cc1ccc(NC(=O)[C@@H](c2ccccc2)N2Cc3ccccc3C2=O)cc1, the IkBa stabilization activation was inconclusive: 6.61% [signal inhibitor]. For CC(C)(C)OC(=O)N1CCC(c2c(C(=O)NCCN3CCC(Cc4ccccc4)CC3)cnn2-c2ccc(F)cc2)CC1, the IkBa stabilization activation was inconclusive: -2.76% [signal inhibitor]. With Brc1ccc(-n2nc(-c3ccccc3)c3cnc4cc5c(cc4c32)OCO5)cc1 the IkBa stabilization activation was inconclusive: 1.4% [signal activator]. In the case of COc1ccc2[nH]c(=O)c(CN(Cc3cccs3)Cc3nnnn3C(C)(C)C)cc2c1, the IkBa stabilization activation is reported as inconclusive: 3.07% [signal inhibitor]. For Cc1nn(CCCC(=O)N2CCc3ccccc3C2)c(=O)c2cc3sccc3n12, the IkBa stabilization activation was inconclusive: 5.68% [signal inhibitor]. In the case of Cc1ccc2nc(-c3ccccc3)cn2c1, the IkBa stabilization activation is reported as inconclusive: 14.4% [signal inhibitor]. In the case of CCOc1ccc(C(=O)c2cn(CC(=O)Nc3ccc(Cl)cc3)c3cc4c(cc3c2=O)OCCO4)cc1, the IkBa stabilization activation is reported as inconclusive: 3.96% [signal inhibitor]. With COc1cc(NC(=O)c2cc(S(=O)(=O)N3CCc4ccccc43)cn2C)cc(OC)c1OC the IkBa stabilization activation was inconclusive: 1.42% [signal inhibitor]. In the case of Cc1ccc(C)c(CN2C(=O)c3ccccc3S(=O)(=O)c3ccc(C(=O)N4CCCCC4)cc32)c1, the IkBa stabilization activation is reported as inconclusive: 1.51% [signal inhibitor]. With Cc1ccc(S(=O)(=O)C(C#N)c2nc3ccccc3nc2N2CCCC2)cc1 (stereo not drawn) the IkBa stabilization activation was inconclusive: -1.04% [signal inhibitor]. In the case of COc1ccc(OC)c(NC(=O)c2cnn(-c3ccc(C)cc3)c2C2CCNCC2)c1, the IkBa stabilization activation is reported as “inactive”. With CCc1ccccc1N(C)C(=O)c1cc2c(=O)oc3ccccc3c2s1 the IkBa stabilization activation was inconclusive: 0.394% [signal inhibitor]. In the case of COc1ncc2nc(CCc3ccccc3)c(=O)n(-c3ccccc3)c2n1, the IkBa stabilization activation is reported as inactive: -4.14% [at 11.4 µM, scaled: untreated 0%, proteasome inhibitor 100%]. With CC(C)CC(=O)Nc1c(C(=O)N2CCN(c3ccccc3)CC2)oc2ccccc12 the IkBa stabilization activation was inconclusive: 4.56% [signal inhibitor].
